# Measurements published in patent US20260217767A1, “NOVEL A4B7 THIOETHER PEPTIDE DIMER ANTAGONISTS” (Protagonist Therapeutics, Inc., priority 2014, published 2026).
# Part of at least one peptide drawing is inferred or uncertain, most often the ends. For at least one compound, name, drawing or mass did not settle the structure. *1 amine or outer side, *2 acyl side, *3 side chain or, on linkers, in order; H or OH if unused. Where a SMILES comes first, the peptide text is derived from it. Bridges are numbered along the chain shown (N, C = ends). Roman numbers before positions name the chains, in order. [ ]: non-standard residue; d: D form. The star is where a group is joined. X2 = COCCOCCOCCOCCOCCOCCOCCOCCOCCC(=O)*; Diglycolyl = O=C(COCC(=O)[*:2])[*:1]; NMeR = CN[C@@H](CCCNC(=N)N)C(=O)O; β3hE = N[C@@H](CCC(=O)O)CC(=O)O; X1 = O=C(c1ccccc1C[*:2])[*:1]; Pen = CC(C)(S)[C@H](N)C(=O)O
# Biological target: T1, rh integrin α4β7 (Homo sapiens, UniProt P13612+P26010)
# T1 construct: purchased R&D Systems 5397-A30
# T1 sequence (P13612 34-977 limits assumed): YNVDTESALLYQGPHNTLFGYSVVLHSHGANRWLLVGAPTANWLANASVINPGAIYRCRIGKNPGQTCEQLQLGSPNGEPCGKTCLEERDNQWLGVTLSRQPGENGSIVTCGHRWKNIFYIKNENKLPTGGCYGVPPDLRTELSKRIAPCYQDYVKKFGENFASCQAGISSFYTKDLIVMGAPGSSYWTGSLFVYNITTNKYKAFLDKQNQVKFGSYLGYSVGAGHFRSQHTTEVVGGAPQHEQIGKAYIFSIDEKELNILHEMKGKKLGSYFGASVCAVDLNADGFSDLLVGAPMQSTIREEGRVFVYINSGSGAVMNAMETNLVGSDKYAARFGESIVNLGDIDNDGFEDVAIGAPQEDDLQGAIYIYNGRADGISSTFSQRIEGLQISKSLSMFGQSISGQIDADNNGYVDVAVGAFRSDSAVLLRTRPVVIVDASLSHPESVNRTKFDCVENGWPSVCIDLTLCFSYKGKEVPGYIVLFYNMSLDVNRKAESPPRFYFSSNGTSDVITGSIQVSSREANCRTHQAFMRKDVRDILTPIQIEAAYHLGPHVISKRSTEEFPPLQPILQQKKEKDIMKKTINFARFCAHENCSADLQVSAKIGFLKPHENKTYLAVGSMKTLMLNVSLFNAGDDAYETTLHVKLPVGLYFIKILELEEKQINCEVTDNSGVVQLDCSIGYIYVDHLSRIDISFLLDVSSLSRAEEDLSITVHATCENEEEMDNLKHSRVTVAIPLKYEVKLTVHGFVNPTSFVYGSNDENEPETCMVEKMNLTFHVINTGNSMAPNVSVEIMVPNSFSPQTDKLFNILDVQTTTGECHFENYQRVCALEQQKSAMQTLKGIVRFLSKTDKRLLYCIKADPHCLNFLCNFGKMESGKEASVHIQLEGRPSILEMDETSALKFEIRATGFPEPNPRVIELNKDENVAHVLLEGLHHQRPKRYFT
# T1 sequence (P26010 20-723 limits assumed): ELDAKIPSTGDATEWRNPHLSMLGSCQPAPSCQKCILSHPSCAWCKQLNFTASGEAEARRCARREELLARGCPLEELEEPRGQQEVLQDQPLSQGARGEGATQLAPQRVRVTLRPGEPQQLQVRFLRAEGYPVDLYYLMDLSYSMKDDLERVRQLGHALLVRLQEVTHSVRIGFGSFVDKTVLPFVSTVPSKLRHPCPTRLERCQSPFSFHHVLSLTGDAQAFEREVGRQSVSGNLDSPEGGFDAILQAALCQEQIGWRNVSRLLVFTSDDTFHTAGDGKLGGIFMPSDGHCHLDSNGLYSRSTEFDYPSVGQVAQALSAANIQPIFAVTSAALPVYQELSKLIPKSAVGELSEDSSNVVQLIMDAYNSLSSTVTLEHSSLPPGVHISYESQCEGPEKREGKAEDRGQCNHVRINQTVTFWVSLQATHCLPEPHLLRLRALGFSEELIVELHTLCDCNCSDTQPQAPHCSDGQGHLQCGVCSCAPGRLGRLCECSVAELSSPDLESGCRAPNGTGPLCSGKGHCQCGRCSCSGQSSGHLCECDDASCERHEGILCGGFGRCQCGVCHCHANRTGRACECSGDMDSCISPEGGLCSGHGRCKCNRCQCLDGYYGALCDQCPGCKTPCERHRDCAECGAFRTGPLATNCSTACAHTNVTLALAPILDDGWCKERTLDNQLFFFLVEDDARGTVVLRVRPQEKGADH
# Assay: α4β7-MAdCAM Competition ELISA
# Assay type: binding
# Settings: thioether monomer peptides, Table 6; read-out: ELISA A4B7
# Experimental: α4β7-MAdCAM Competition ELISA A nickel coated plate (Pierce #15442) was coated with rh integrin α4β[…] Systems #5397-A30) at 800 ng/well and incubated at room temperature with shaking for 1 hr. The solution was then removed by shaking and blocked with assay buffer (50 mM Tris-HCl pH7.6, 150 mM NaCl, 1 mM MnCl2 or MgCl2, 0.05% Tween-20 and 0.5% BSA) at 250 ul/well. The plate was then incubated at room temperature for 1 hr. Each well was washed 3 times with wash buffer (50 mM Tris-HCl pH7.6, 100 mM NaCl, 1 mM MnCl2 or MgCl2, 0.05% Tween-20). To each well was added 25 ul of a serial dilution (3-fold dilutions in assay buffer) of peptides starting at 20 μM. 25 ul of recombinant human MAdCAM-1 (R&D Systems #6056-MC) was then added to each well at a fixed concentration 20 nM. The final starting peptide concentration was 10 μM, and the final MAdCAM-1 concentration was 10 nM. The plates were then incubated at room temperature for 1 hr to reach binding equilibrium. The wells were then washed three times with wash buffer. 50 ul of mouse anti-human IgG1-HRP (Invitrogen #A10648) diluted in 1:2000 in assay buffer was then added to each well. The wells were incubated at room temperature for 45 min with shaking. The wells were then washed 3 times with wash buffer. 100 ul of TMB were then added to each well and closely observe during development time. The reaction was stopped with 2N H2SO4 and absorbance was read at 450 nm.
row,SMILES,IC50 [nM]
1,"CC(C)C[C@@H]1NC(=O)[C@H]([C@@H](C)O)NC(=O)[C@H](CC(=O)O)NC(=O)[C@H](CO)NC(=O)[C@H](CCCNC(=N)N)N(C)C(=O)c2ccccc2CSC(C)(C)[C@@H](C(=O)N[C@@H](Cc2c[nH]c3ccccc23)C(=O)N[C@@H](CCC(=O)O)C(=O)N[C@H](CCCCN)C(N)=O)NC1=O [compound 56] (HELM PEPTIDE1{[meR].S.D.T.L.[Pen].W.E.[dK].[am]}|CHEM1{[O=C(c1ccccc1C[*:2])[*:1]]}$PEPTIDE1,CHEM1,1:R1-1:R1|PEPTIDE1,CHEM1,6:R3-1:R2$$$V2.0)",< 25
2,"CC(C)C[C@@H]1NC(=O)[C@H]([C@@H](C)O)NC(=O)[C@H](CC(=O)O)NC(=O)[C@H](CO)NC(=O)[C@H](CCCNC(=N)N)N(C)C(=O)c2ccccc2CSC(C)(C)[C@@H](C(=O)N[C@@H](Cc2ccccc2)C(=O)N[C@H](CCC(=O)O)C(=O)N[C@H](CCCCN)C(N)=O)NC1=O [compound 65] (HELM PEPTIDE1{[meR].S.D.T.L.[Pen].F.[dE].[dK].[am]}|CHEM1{[O=C(c1ccccc1C[*:2])[*:1]]}$PEPTIDE1,CHEM1,1:R1-1:R1|PEPTIDE1,CHEM1,6:R3-1:R2$$$V2.0)",< 25
3,COCCOCCOCCOCCOCCOCCOCCOCCOCCC(=O)NCCCC[C@@H](NC(=O)[C@@H](CCC(=O)O)NC(=O)[C@H](Cc1c[nH]c2ccccc12)NC(=O)[C@H]1NC(=O)[C@H](CC(C)C)NC(=O)[C@H]([C@@H](C)O)NC(=O)[C@H](CC(=O)O)NC(=O)[C@H](CO)NC(=O)[C@H](CCCNC(=N)N)N(C)C(=O)c2ccccc2CSC1(C)C)C(N)=O [compound 82] ([NMeR]SDTL[Pen]W[dE][dK](X2)-NH2; linker N-6 via X1),< 25
4,"CC(=O)NCCCC[C@@H](NC(=O)[C@H](CCC(=O)O)NC(=O)[C@H](Cc1ccc(C(F)(F)F)cc1)NC(=O)[C@H]1NC(=O)[C@H](CC(C)C)NC(=O)[C@H]([C@@H](C)O)NC(=O)[C@H](CC(=O)O)NC(=O)[C@H](CO)NC(=O)[C@H](CCCNC(=N)N)N(C)C(=O)c2ccccc2CSC1(C)C)C(N)=O [compound 88] (HELM PEPTIDE1{[meR].S.D.T.L.[Pen].[O=C([C@H](Cc1ccc(C(F)(F)F)cc1)N[*:1])[*:2]].E.[dK].[am]}|PEPTIDE2{[ac]}|CHEM1{[O=C(c1ccccc1C[*:2])[*:1]]}$PEPTIDE1,PEPTIDE2,9:R3-1:R2|PEPTIDE1,CHEM1,1:R1-1:R1|PEPTIDE1,CHEM1,6:R3-1:R2$$$V2.0)",< 25
5,"CC(C)C[C@@H]1NC(=O)[C@H]([C@@H](C)O)NC(=O)[C@H](CC(=O)O)NC(=O)[C@H](CO)NC(=O)[C@H](CCCNC(=N)N)N(C)C(=O)c2ccccc2CSC(C)(C)[C@@H](C(=O)N[C@@H](Cc2c[nH]c3ccccc23)C(=O)N[C@H](CCC(=O)O)C(N)=O)NC1=O [compound 97] (HELM PEPTIDE1{[meR].S.D.T.L.[Pen].W.[dE].[am]}|CHEM1{[O=C(c1ccccc1C[*:2])[*:1]]}$PEPTIDE1,CHEM1,1:R1-1:R1|PEPTIDE1,CHEM1,6:R3-1:R2$$$V2.0)",< 25

# Same assay, conditions: thioether peptide dimers, Table 7; read-out: ELISA A4B7
row,SMILES,IC50 [nM]
1,"CC(C)C[C@@H]1NC(=O)[C@H]([C@@H](C)O)NC(=O)[C@H](CC(=O)O)NC(=O)[C@H](CO)NC(=O)[C@H](CCCNC(=N)N)N(C)C(=O)c2ccccc2CSC(C)(C)[C@@H](C(=O)N[C@@H](Cc2ccc(O)cc2)C(=O)N[C@@H](CCC(=O)O)CC(=O)N[C@H](CCCCNC(=O)COCC(=O)NCCCC[C@@H](NC(=O)C[C@H](CCC(=O)O)NC(=O)[C@H](Cc2ccc(O)cc2)NC(=O)[C@H]2NC(=O)[C@H](CC(C)C)NC(=O)[C@H]([C@@H](C)O)NC(=O)[C@H](CC(=O)O)NC(=O)[C@H](CO)NC(=O)[C@H](CCCNC(=N)N)N(C)C(=O)c3ccccc3CSC2(C)C)C(N)=O)C(N)=O)NC1=O [compound 165] (I: [NMeR]SDTL[Pen]Y[β3hE][dK]-NH2 / II: [NMeR]SDTL[Pen]Y[β3hE][dK]-NH2; linker I:9-II:9 via Diglycolyl; linker I:N-I:6, II:N-II:6 via X1)",< 25
